Experimental data reported in article PMC11312940.
No constants are given. Whether binding was seen depends on the method and setting. In cells and extracts the contact can be indirect. Some results given as binding are weak or reduced against the parent protein; the word gives no strength.

The chains behind the UniProt entries cited, without tags or fusion partners.
UniProt P46937: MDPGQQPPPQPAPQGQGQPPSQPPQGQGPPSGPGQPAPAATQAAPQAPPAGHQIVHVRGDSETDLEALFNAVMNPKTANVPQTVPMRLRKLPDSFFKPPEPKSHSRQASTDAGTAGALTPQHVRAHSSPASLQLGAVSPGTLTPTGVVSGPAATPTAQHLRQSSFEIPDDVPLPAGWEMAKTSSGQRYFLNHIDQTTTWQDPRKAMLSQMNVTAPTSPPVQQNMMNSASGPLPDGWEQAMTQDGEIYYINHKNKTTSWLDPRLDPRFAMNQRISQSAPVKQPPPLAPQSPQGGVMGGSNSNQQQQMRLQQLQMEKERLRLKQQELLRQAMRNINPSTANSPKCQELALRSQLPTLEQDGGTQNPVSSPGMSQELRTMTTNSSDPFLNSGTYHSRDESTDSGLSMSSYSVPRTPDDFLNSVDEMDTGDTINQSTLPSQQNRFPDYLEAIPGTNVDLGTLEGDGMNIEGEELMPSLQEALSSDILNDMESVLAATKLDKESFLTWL
UniProt Q9GZV5: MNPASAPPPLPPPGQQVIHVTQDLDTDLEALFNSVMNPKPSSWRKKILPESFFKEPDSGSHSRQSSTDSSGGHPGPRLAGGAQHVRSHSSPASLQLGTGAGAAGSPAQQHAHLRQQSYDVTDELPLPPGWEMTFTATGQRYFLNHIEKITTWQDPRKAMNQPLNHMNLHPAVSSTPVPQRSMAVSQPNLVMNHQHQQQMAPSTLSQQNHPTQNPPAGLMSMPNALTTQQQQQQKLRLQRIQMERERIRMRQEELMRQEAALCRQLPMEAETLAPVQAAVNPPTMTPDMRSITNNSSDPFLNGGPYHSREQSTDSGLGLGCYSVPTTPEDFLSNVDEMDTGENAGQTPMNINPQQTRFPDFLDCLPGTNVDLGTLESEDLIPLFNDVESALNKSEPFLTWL
UniProt P46109: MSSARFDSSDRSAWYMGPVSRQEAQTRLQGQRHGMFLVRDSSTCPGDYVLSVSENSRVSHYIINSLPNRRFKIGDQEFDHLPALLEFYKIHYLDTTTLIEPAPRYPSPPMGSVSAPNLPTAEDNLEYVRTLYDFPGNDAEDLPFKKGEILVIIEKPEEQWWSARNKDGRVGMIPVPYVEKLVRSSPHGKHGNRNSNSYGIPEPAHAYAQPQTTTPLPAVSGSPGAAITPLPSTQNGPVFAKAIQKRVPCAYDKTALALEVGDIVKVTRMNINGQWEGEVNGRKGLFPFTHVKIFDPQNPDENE
UniProt P46108: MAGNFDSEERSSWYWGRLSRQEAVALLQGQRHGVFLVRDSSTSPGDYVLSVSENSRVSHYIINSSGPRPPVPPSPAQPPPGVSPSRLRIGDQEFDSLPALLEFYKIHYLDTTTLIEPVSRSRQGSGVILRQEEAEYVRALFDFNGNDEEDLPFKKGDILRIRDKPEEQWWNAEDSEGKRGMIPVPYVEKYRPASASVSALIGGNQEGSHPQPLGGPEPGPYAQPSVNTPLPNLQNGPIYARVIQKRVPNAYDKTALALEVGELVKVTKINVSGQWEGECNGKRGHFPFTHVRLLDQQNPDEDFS
UniProt Q70E73: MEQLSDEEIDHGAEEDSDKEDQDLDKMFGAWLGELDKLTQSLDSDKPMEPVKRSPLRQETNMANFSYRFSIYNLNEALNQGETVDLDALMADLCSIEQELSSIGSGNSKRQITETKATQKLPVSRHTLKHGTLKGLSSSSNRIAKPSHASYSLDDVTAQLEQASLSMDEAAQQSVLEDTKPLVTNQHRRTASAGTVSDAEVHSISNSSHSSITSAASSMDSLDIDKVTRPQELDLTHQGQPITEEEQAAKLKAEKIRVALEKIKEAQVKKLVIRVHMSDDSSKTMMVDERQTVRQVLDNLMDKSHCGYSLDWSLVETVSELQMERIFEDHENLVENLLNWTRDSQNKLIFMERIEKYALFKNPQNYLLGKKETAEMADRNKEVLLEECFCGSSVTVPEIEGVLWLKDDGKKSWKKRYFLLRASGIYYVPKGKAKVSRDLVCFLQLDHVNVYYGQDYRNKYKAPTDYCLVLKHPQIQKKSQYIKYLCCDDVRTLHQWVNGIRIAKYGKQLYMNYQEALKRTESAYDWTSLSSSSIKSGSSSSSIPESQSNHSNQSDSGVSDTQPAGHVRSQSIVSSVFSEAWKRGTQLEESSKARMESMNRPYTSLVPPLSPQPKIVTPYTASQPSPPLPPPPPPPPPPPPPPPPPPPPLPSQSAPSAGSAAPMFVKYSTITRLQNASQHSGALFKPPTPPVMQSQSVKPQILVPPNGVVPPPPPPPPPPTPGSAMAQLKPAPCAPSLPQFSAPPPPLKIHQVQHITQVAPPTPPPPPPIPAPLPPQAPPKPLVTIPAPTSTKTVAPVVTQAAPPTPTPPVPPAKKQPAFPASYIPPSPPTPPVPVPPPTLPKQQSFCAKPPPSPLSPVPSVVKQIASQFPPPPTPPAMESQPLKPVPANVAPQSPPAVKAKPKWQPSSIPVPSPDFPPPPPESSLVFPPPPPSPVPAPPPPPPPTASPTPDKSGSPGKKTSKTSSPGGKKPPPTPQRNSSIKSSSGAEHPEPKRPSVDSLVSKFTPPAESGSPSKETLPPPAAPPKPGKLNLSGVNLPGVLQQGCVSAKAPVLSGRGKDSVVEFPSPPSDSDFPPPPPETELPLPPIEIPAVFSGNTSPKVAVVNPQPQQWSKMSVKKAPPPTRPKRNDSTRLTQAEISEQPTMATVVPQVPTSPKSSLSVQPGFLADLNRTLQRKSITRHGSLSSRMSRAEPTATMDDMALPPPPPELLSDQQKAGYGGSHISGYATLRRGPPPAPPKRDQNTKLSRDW
UniProt P50552: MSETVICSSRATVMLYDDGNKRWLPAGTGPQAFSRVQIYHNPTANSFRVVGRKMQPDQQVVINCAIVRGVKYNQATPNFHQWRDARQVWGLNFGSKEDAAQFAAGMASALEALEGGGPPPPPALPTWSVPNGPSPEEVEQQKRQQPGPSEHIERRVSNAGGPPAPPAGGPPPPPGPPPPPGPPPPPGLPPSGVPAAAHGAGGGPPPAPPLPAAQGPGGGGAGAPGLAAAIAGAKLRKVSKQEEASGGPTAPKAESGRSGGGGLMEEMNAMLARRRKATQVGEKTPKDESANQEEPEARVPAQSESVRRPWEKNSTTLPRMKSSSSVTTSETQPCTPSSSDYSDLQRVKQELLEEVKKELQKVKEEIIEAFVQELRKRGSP

Legend:
[1] = molecular target: yes-associated protein (YAP), endogenous (human (endogenous in HLF and SNU449)) (UniProt P46937); assay: proximity ligation; in situ PLA (Duolink) on fixed, permeabilised HLF cells; single primary antibody as negative control
[2] = molecular target: WW-domain containing transcription regulator 1 (WWTR1/TAZ), endogenous (human (endogenous in HLF)) (UniProt Q9GZV5); assay: as above
[3] = molecular target: yes-associated protein (YAP), endogenous (human (endogenous in HLF and SNU449)) (UniProt P46937); assay: proximity ligation; in situ PLA (Duolink) on fixed SNU449 cells, DMSO control; YAP and CRKL antibody-only PLAs as negative control; quantified
[4] = molecular target: yes-associated protein (YAP), endogenous (human (endogenous in HLF and SNU449)) (UniProt P46937); assay: co-IP; endogenous YAP or endogenous CRKL precipitated from HLF cells; IgG as negative control; CoIP as in ref. 4
[5] = molecular target: yes-associated protein (YAP), endogenous (human (endogenous in HLF and SNU449)) (UniProt P46937); assay: co-IP; Supplementary Figure S2A,B; cells, constructs and who was precipitated not shown; CoIP as in ref. 4
[6] = molecular target: WW-domain containing transcription regulator 1 (WWTR1/TAZ), endogenous (human (endogenous in HLF)) (UniProt Q9GZV5); assay: as above
[7] = molecular target: CRK-like proto-oncogene adaptor protein (CRKL) (human (endogenous in HLF and SNU449)) (UniProt P46109); assay: co-IP; endogenous YAP or endogenous CRKL precipitated from HLF cells; IgG as negative control; CoIP as in ref. 4

Substance	binding [1]	binding [2]	binding [5]	other results
CRK (CT10 Regulator of Kinase) (from UniProt P46108 1-304)	binds	binds weakly		
CRK-like proto-oncogene adaptor protein (CRKL) (from UniProt P46109 1-303)	binds	no binding		binding [3]: binds; binding [4]: binds
RAPH1 (Ras Association and Pleckstrin Homology domains 1) (from UniProt Q70E73 1-1250)			binds	
VASP (Vasodilator-stimulated phosphoprotein) (from UniProt P50552 1-380)			binds	binding [6]: binds
yes-associated protein (YAP), endogenous (from UniProt P46937 1-504)				binding [7]: binds
